Test results published in PubChem BioAssay AID1458 (National Center for Advancing Translational Sciences (NCATS), 2008).
Among all 210,000 compounds or so, about 5,900 (2.8%) were called active. Inconclusive results, whose numbers are uncertain, are shown with a selection of clear calls. The call rests on the fitted dose curve; in most records, active means well fitted activation curve with a large enough effect; inconclusive means small, poorly fitted or top-dose-only effect; inactive means no such curve, though single readings can be large or run the other way. Potencies of inconclusive entries are doubtful fits and often do not repeat.

assay: qHTS Assay for Enhancers of SMN2 Splice Variant Expression; conditions: HEK293 SMN2-luciferase splicing reporter, luminescence, 30-36 h; activity change, positive = activation: at 46.1 µM (top of the series); further: nearly all actives have a fitted effect of over 55% in size; on activity change, positive = activation: % of control where 0% means no effect
Outline: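 HEK293 cells carry an SMN2 minigene-luciferase reporter in which exon 7 inclusion puts luciferase in frame. Cells were seeded at 2000 cells/well, attached for 10-12 hours, then exposed to compounds for 30-36 hours at 37C before ONE-Glo luminescence.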
Potency means the concentration at half of the fitted maximal effect; tags describe the fitted curve by direction and shape.

| SMILES | Potency | activity change, positive = activation |
| --- | --- | --- |
| Cn1cccc1CNC(=O)Nc1ccccc1 | inconclusive: 10 µM [activator, single point] | – |
| CC(C)c1cnc(NC(=O)Cc2ccccc2)s1 | inconclusive: 17.8 µM [activator, partial curve, poor fit] | – |
| CCOC(=O)c1sc(N2C(=O)c3oc4cc(C)c(C)cc4c(=O)c3C2c2ccc(C)cc2)nc1C (stereo not given) | inactive | – |
| CN(C)c1ccc(NC(=O)CC(NCc2ccccn2)C(=O)O)cc1 (stereo not given) | inconclusive: 12.6 µM [activator, single point] | – |
| O=C(CSc1nnnn1-c1ccccc1)NC(=O)Nc1ccc2c(c1)OCCO2 | inconclusive: 25.1 µM [activator, partial curve, poor fit] | – |
| CCC(c1nc2ccccc2c(=O)n1-c1cccnc1)N1C(=O)c2ccccc2C1=O (stereo not given) | inconclusive: 14.1 µM [activator, partial curve, poor fit] | – |
| CCn1c(C)nc2cc(C(=O)n3cc(C(=O)c4cc(F)ccc4O)cn3)ccc21 | inconclusive: 35.5 µM [activator, partial curve, poor fit] | – |
| COc1ccc(-c2noc(CSc3nnc(CCc4ccccc4)n3-c3ccccc3)n2)cc1OC | inconclusive: 6.31 µM [activator, partial curve, poor fit] | – |
| COC(=O)c1ccc(NC(=S)Nc2ccccn2)cc1 | active: 11.2 µM | – |
| C=CCn1c(C)cc(C(=O)CSc2n[nH]c(N)n2)c1C | inconclusive: 10 µM [activator, partial curve, poor fit] | – |
| CCCCn1c(C)cc2cc(O)ccc21 | inconclusive: 35.5 µM [activator, partial curve, poor fit] | – |
| CCn1c(=O)c(=O)[nH]c2cc(C(=O)NC3CCCC3)ccc21 | inconclusive: 2.51 µM [activator, partial curve] | – |
| C=C1C(=O)OC2C[C@@]3(C)CCCC(C)C3=CC12 (stereo not given in full) | inactive | – |
| O=C(Cc1ccccc1)Nc1nc2ccccc2s1 | inconclusive: 14.1 µM [activator, partial curve] | – |
| Cc1ccc2cc(CN(CC3CCCO3)C(=S)Nc3ccccc3)c(=O)[nH]c2c1C (stereo not given) | inconclusive: 35.5 µM [activator, single point] | – |
| Nc1[nH]nc2nc(N3CCCC3)nc(-c3ccccc3)c12 | inactive | – |
| OCc1cn(-c2ccccc2)nc1-c1ccc2c(c1)OCCO2 | inactive | – |
| Cc1ccc(C(=O)NCCSc2snnc2C)cc1 | inconclusive: 35.5 µM [activator, single point] | – |
| O=C(NCCCN1CCOCC1)c1sc2cc([N+](=O)[O-])ccc2c1Cl | inactive | – |
| Cc1ccnc2nc(C(=O)Nc3nnc(-c4ccccc4)o3)nn12 | inconclusive: 11.2 µM [activator, partial curve] | – |
| CC(CNc1nc2ccccc2c2nc(-c3ccccc3)nn12)c1ccccc1 (stereo not given) | inactive | – |
| O=C(Nc1ccc2nc(-c3ccccc3)oc2c1)c1ccco1 | inconclusive: 14.1 µM [activator, partial curve, poor fit] | – |
| O=C(O)c1cccc(-n2cccc2/C=C2/NC(=O)N(c3ccc(Cl)cc3)C2=O)c1 | inactive | – |
| C=CCN=C(NC#N)SCC(=O)c1cccc(OC)c1 | inconclusive: 17.8 µM [activator, partial curve] | – |

| SMILES | Potency | activity change, positive = activation |
| --- | --- | --- |
| Cc1ccc(OCCOc2cccc(Br)c2)c([N+](=O)[O-])n1 | active: 17.8 µM | – |
| Cc1cccc(C(=O)NC2CCN(CC(=O)NCc3cccs3)CC2)c1 | inconclusive: 31.6 µM [activator, single point] | – |
| CCc1ccc(-n2c3nc(=O)[nH]c(=O)c-3cc3c(C)nn(-c4ccccc4)c32)cc1 | inactive | – |
| CC1CN(C(c2cccs2)c2sc3ncnn3c2O)CC(C)O1 (stereo not given) | inactive | – |
| COCCn1c(=O)[nH]c(=O)c2c(C(F)(F)F)cc(-c3cccs3)nc21 | inconclusive: 17.8 µM [activator, partial curve, poor fit] | – |
| O=C(CC1CS(=O)(=O)CC1CC(=O)Oc1ccccc1F)Oc1ccccc1F (stereo not given) | inconclusive: 31.6 µM [activator, single point] | – |
| Cc1cc(C)n(-c2nnc(NC(C)(C)C)nn2)n1 | active: 12.6 µM | – |
| COC(=O)c1cc(=O)nc2sccn12 | inconclusive: 35.5 µM [activator, single point] | – |
| COc1ccc(-c2csc(NC(C)=O)n2)cc1OC | inactive | – |
| O=C(/C=C/c1ccco1)N1CCCC(c2ccccc2)C1 (stereo not given) | inactive | – |
| COc1cccc2cc(-c3nnc(-c4ccccc4)o3)c(=O)oc12 | active: 11.2 µM | – |
| Cc1cc(C)cc(NS(=O)(=O)c2ccc3[nH]cc(C(=O)N4CCCCC4)c(=O)c3c2)c1 | inactive | – |
| COc1ccccc1NS(=O)(=O)c1cc(NC(=O)c2cccs2)ccc1N1CCCC1 | inconclusive: 3.98 µM [activator, single point] | – |
| Clc1ccc(COc2ccccc2-c2ccnc3ncnn23)cc1 | inconclusive: 11.2 µM [activator, single point] | – |
| Cc1cc(C(=O)Nc2nc(C)c(C(=O)N(C)C)s2)ccc1[N+](=O)[O-] | active: 1.78 µM | – |
| C[C@@H](C(=O)N[C@@H](CO)Cc1ccccc1)[C@@H]1C[C@@]1(C)[C@@H](NC(=O)OCc1ccccc1)c1ccccc1 | inconclusive: 12.6 µM [activator, partial curve] | – |
| COc1ccc(CCN=C(N)NS(=O)(=O)c2ccc(F)cc2)cc1 | inactive | – |
| COCCNC(=O)C(c1ccc(Cl)cc1)N(CCOC)C(=O)CCC(=O)Nc1nccs1 (stereo not given) | inactive | – |
| COCCCNC(=O)c1ccccc1NS(C)(=O)=O | inconclusive: 0.0398 µM [activator, full curve, poor fit] | – |
| c1ccc(SCc2nc3ccccc3[nH]2)cc1 | inconclusive: 22.4 µM [activator, partial curve, poor fit] | – |
| Cc1ccn2cc(CSc3ccccc3)nc2c1 | active: 12.6 µM | – |
| CCC(=O)Nc1ccc2nc(C3CC3)n(Cc3ccccc3)c(=O)c2c1 | inconclusive: 6.31 µM [activator, partial curve] | – |
| CC(=O)Oc1ccc(Oc2ccc(-c3noc(C)n3)cc2)cc1 | – | inconclusive: 51.4% [activator] |
| COc1ccc(CNC(=O)C2CC(c3ccccc3[N+](=O)[O-])=NO2)cc1 (stereo not given) | inactive | – |

| SMILES | Potency | activity change, positive = activation |
| --- | --- | --- |
| COc1ccc(C(=O)NC(Cc2ccccc2)c2ccc3c(c2)OCCCO3)cc1 (stereo not given) | inconclusive: 7.08 µM [activator, partial curve, poor fit] | – |
| CCOc1ccc(NC2=NC(C(=O)NCc3ccccc3)CC(=O)N2)cc1 (stereo not given) | inactive | – |
| COC(=O)N1N=C(c2ccccc2)CC1(O)C(F)(F)F (stereo not given) | inconclusive: 1.58 µM [activator, partial curve] | – |
| O=C(O)c1ccc(N=NN2CCCCCC2)cc1 | active: 4.47 µM | – |
| Cc1cc(C)nc(SCC(=O)c2c(N)n(C)c(=O)n(C)c2=O)n1 | inconclusive: 0.0501 µM [activator, full curve] | – |
| CC(=O)Nc1ccc(/C=C/c2ccc3c([N+](=O)[O-])cccc3n2)cc1 | inconclusive: 14.1 µM [activator, single point] | – |
| COc1cc(NC(=O)c2cc3c(=O)oc4ccc(C)cc4c3s2)cc(OC)c1OC | inactive | – |
| O=C1c2ccccc2C(=O)C12OC(c1ccccc1)C1(C(=O)c3ccccc3C1=O)C2c1cccc([N+](=O)[O-])c1 (stereo not given) | inconclusive: 35.5 µM [activator, single point] | – |
| CC(C)/C=C1\CC/C(=C\c2ccc(N(C)C)cc2)C1=O | inconclusive: 35.5 µM [activator, single point] | – |
| CCCCNC(=O)C(c1ccc(OCC(=O)OC)c(C(=O)OC)c1)N(CCC1=CCCCC1)C(=O)CCCCCN1C(=O)NC(c2ccc(-c3ccccc3)cc2)C(C(=O)OCc2ccccc2)=C1C (stereo not given) | inconclusive: 0.891 µM [activator, full curve, poor fit] | – |
| Cc1cc(C)n2cc(COc3ccc4ccccc4c3)nc2n1 | active: 12.6 µM | – |
| CC(=O)Cc1nsc(NC(=O)c2ccc(-c3ccccc3Cl)o2)n1 | active: 11.2 µM | – |
| O=C(Nc1cccc([N+](=O)[O-])c1)Nc1ccc2c(c1)OCCO2 | active: 11.2 µM | – |
| OCCNCCCCOc1ccc(OCc2ccccc2)cc1 | active: 15.8 µM | – |
| O=C(O)C1CCC(=O)N1Cc1ccccc1Cl (stereo not given) | inconclusive: 11.2 µM [activator, partial curve, poor fit] | – |
| O=C(Nc1cccc(-c2cn3ccccc3n2)c1)c1cnccn1 | inconclusive: 17.8 µM [activator, partial curve] | – |
| Cc1cccc(-c2noc(-c3cc4ccccc4oc3=O)n2)c1 | inconclusive: 31.6 µM [activator, single point] | – |
| CCN(CC)S(=O)(=O)c1cc(C(=O)NC2CCCCC2)ccc1C | inconclusive: 15.8 µM [activator, single point] | – |
| Nc1ncnc2c1ncn2[C@@H]1O[C@H](COP(=O)(O)OP(=O)(O)OP(=O)(O)OP(=O)(O)OC[C@@H]2O[C@H](n3cnc4c(N)ncnc43)[C@@H](O)[C@H]2O)[C@@H](O)[C@H]1O | inconclusive: 35.5 µM [activator, single point] | – |
| Cc1ccc2oc3c(c(=O)c2c1)C(c1ccccc1F)N(CCCN1CCOCC1)C3=O (stereo not given) | inconclusive: 3.98 µM [activator, full curve, poor fit] | – |
| CCc1ccc2[nH]c3nc(SCc4nnc(-c5ccc(C)cc5)o4)nnc3c2c1 | inconclusive: 31.6 µM [activator, single point] | – |
| COc1ccccc1C(=O)Nc1ccccc1N1CCN(S(C)(=O)=O)CC1 | inconclusive: 35.5 µM [activator, single point] | – |
